Results published in a compilation of properties of binary mixtures (doi:10.1016/j.molliq.2017.11.011).
Some of these densities may be calculated back from excess volumes.

Experiment: xn = mol fraction of the nth substance listed
Conditions: 101 kPa

CCCC[P+](CC)(CCCC)CCCC.CCOP(=O)([O-])OCC + O
Conditions | mass density [kg/m3]
298.15 K, x1 = 0.007 | 1005.4
298.15 K, x1 = 0.0141 | 1013.1
298.15 K, x1 = 0.0208 | 1018.5
298.15 K, x1 = 0.028 | 1022
298.15 K, x1 = 0.0392 | 1024.7
298.15 K, x1 = 0.048 | 1025.7
298.15 K, x1 = 0.0564 | 1026
298.15 K, x1 = 0.0905 | 1025
298.15 K, x1 = 0.2038 | 1019.6
298.15 K, x1 = 0.3024 | 1016.4
298.15 K, x1 = 0.3979 | 1014.3
298.15 K, x1 = 0.5175 | 1012.4
298.15 K, x1 = 0.6063 | 1011.3
298.15 K, x1 = 0.6943 | 1010.5
298.15 K, x1 = 0.7959 | 1009.5
298.15 K, x1 = 0.9 | 1008.9
298.15 K, x1 = 1 | 1008.4
303.15 K, x1 = 0.0141 | 1010.6
303.15 K, x1 = 0.0208 | 1015.4
303.15 K, x1 = 0.028 | 1018.7
303.15 K, x1 = 0.035 | 1020.6
303.15 K, x1 = 0.0392 | 1021.2
303.15 K, x1 = 0.048 | 1022
303.15 K, x1 = 0.0564 | 1022.4
303.15 K, x1 = 0.068 | 1022.2
303.15 K, x1 = 0.0794 | 1021.9
303.15 K, x1 = 0.0905 | 1021.3
303.15 K, x1 = 0.1023 | 1020.7
303.15 K, x1 = 0.1174 | 1020
303.15 K, x1 = 0.2038 | 1016
303.15 K, x1 = 0.3024 | 1012.9
303.15 K, x1 = 0.3979 | 1010.8
303.15 K, x1 = 0.5175 | 1009
303.15 K, x1 = 0.6063 | 1007.9
303.15 K, x1 = 0.6943 | 1007.1
303.15 K, x1 = 0.9 | 1005.6
303.15 K, x1 = 1 | 1005.1
308.15 K, x1 = 0.007 | 1001.4
308.15 K, x1 = 0.0141 | 1007.9
308.15 K, x1 = 0.0208 | 1012.3
308.15 K, x1 = 0.028 | 1015.2
308.15 K, x1 = 0.035 | 1017
308.15 K, x1 = 0.048 | 1018.3
308.15 K, x1 = 0.0564 | 1018.6
308.15 K, x1 = 0.0905 | 1017.6
308.15 K, x1 = 0.1023 | 1017
308.15 K, x1 = 0.1174 | 1016.3
308.15 K, x1 = 0.3024 | 1009.3
308.15 K, x1 = 0.3979 | 1007.3
308.15 K, x1 = 0.5175 | 1005.5
308.15 K, x1 = 0.6943 | 1003.7
308.15 K, x1 = 0.7959 | 1002.9
308.15 K, x1 = 0.9 | 1002.3
313.15 K, x1 = 0.007 | 999.1
313.15 K, x1 = 0.0141 | 1005.1
313.15 K, x1 = 0.0208 | 1009.1
313.15 K, x1 = 0.035 | 1013.4
313.15 K, x1 = 0.0392 | 1013.8
313.15 K, x1 = 0.048 | 1014.6
313.15 K, x1 = 0.0794 | 1014.4
313.15 K, x1 = 0.0905 | 1013.8
313.15 K, x1 = 0.1023 | 1013.3
313.15 K, x1 = 0.1174 | 1012.5
313.15 K, x1 = 0.2038 | 1008.8
313.15 K, x1 = 0.3024 | 1005.8
313.15 K, x1 = 0.5175 | 1002
313.15 K, x1 = 0.6943 | 1000.3
313.15 K, x1 = 0.7959 | 999.5
313.15 K, x1 = 1 | 998.6
318.15 K, x1 = 0.007 | 996.7
318.15 K, x1 = 0.0208 | 1005.8
318.15 K, x1 = 0.028 | 1008.2
318.15 K, x1 = 0.035 | 1009.7
318.15 K, x1 = 0.0392 | 1010.1
318.15 K, x1 = 0.048 | 1010.8
318.15 K, x1 = 0.0794 | 1010.6
318.15 K, x1 = 0.0905 | 1010
318.15 K, x1 = 0.1023 | 1009.5
318.15 K, x1 = 0.1174 | 1008.8
318.15 K, x1 = 0.2038 | 1005.1
318.15 K, x1 = 0.3024 | 1002.2
318.15 K, x1 = 0.3979 | 1000.2
318.15 K, x1 = 0.5175 | 998.6
318.15 K, x1 = 0.6063 | 997.6
318.15 K, x1 = 0.6943 | 996.9
318.15 K, x1 = 0.9 | 995.7
323.15 K, x1 = 0.007 | 994.1
323.15 K, x1 = 0.0141 | 999.1
323.15 K, x1 = 0.0208 | 1002.4
323.15 K, x1 = 0.0392 | 1006.4
323.15 K, x1 = 0.068 | 1007.1
323.15 K, x1 = 0.0794 | 1006.8
323.15 K, x1 = 0.0905 | 1006.2
323.15 K, x1 = 0.1023 | 1005.7
323.15 K, x1 = 0.1174 | 1005
323.15 K, x1 = 0.2038 | 1001.5
323.15 K, x1 = 0.3024 | 998.7
323.15 K, x1 = 0.3979 | 996.7
323.15 K, x1 = 0.5175 | 995.1
323.15 K, x1 = 0.6063 | 994.2
323.15 K, x1 = 0.6943 | 993.5
323.15 K, x1 = 0.7959 | 992.8
323.15 K, x1 = 0.9 | 992.3
323.15 K, x1 = 1 | 992
328.15 K, x1 = 0.007 | 991.4
328.15 K, x1 = 0.0141 | 996
328.15 K, x1 = 0.0208 | 999
328.15 K, x1 = 0.028 | 1001
328.15 K, x1 = 0.035 | 1002.2
328.15 K, x1 = 0.0392 | 1002.6
328.15 K, x1 = 0.048 | 1003.1
328.15 K, x1 = 0.0564 | 1003.4
328.15 K, x1 = 0.068 | 1003.2
328.15 K, x1 = 0.0794 | 1002.9
328.15 K, x1 = 0.0905 | 1002.4
328.15 K, x1 = 0.1174 | 1001.2
328.15 K, x1 = 0.2038 | 997.8
328.15 K, x1 = 0.3979 | 993.2
328.15 K, x1 = 0.5175 | 991.6
328.15 K, x1 = 0.6063 | 990.8
328.15 K, x1 = 0.7959 | 989.4
328.15 K, x1 = 1 | 988.7
333.15 K, x1 = 0.0141 | 992.8
333.15 K, x1 = 0.0208 | 995.5
333.15 K, x1 = 0.028 | 997.3
333.15 K, x1 = 0.035 | 998.4
333.15 K, x1 = 0.0392 | 998.8
333.15 K, x1 = 0.048 | 999.3
333.15 K, x1 = 0.0564 | 999.5
333.15 K, x1 = 0.068 | 999.3
333.15 K, x1 = 0.0794 | 999
333.15 K, x1 = 0.0905 | 998.5
333.15 K, x1 = 0.1023 | 998
333.15 K, x1 = 0.1174 | 997.4
333.15 K, x1 = 0.2038 | 994.2
333.15 K, x1 = 0.3979 | 989.7
333.15 K, x1 = 0.5175 | 988.2
333.15 K, x1 = 0.6943 | 986.7
333.15 K, x1 = 0.9 | 985.7
333.15 K, x1 = 1 | 985.4
338.15 K, x1 = 0.007 | 985.5
338.15 K, x1 = 0.0141 | 989.4
338.15 K, x1 = 0.0208 | 991.9
338.15 K, x1 = 0.028 | 993.6
338.15 K, x1 = 0.048 | 995.4
338.15 K, x1 = 0.0794 | 995.1
338.15 K, x1 = 0.0905 | 994.6
338.15 K, x1 = 0.1023 | 994.1
338.15 K, x1 = 0.1174 | 993.6
338.15 K, x1 = 0.2038 | 990.5
338.15 K, x1 = 0.3024 | 988
338.15 K, x1 = 0.3979 | 986.2
338.15 K, x1 = 0.6063 | 983.9
338.15 K, x1 = 0.6943 | 983.3
338.15 K, x1 = 0.7959 | 982.7
338.15 K, x1 = 0.9 | 982.4
338.15 K, x1 = 1 | 982.1
343.15 K, x1 = 0.007 | 982.4
343.15 K, x1 = 0.0208 | 988.3
343.15 K, x1 = 0.028 | 989.8
343.15 K, x1 = 0.035 | 990.7
343.15 K, x1 = 0.0392 | 991
343.15 K, x1 = 0.048 | 991.4
343.15 K, x1 = 0.068 | 991.5
343.15 K, x1 = 0.0794 | 991.2
343.15 K, x1 = 0.0905 | 990.7
343.15 K, x1 = 0.1023 | 990.2
343.15 K, x1 = 0.1174 | 989.7
343.15 K, x1 = 0.2038 | 986.8
343.15 K, x1 = 0.3024 | 984.4
343.15 K, x1 = 0.3979 | 982.7
343.15 K, x1 = 0.5175 | 981.3
343.15 K, x1 = 0.7959 | 979.3
343.15 K, x1 = 0.9 | 979
348.15 K, x1 = 0.007 | 979.2
348.15 K, x1 = 0.0141 | 982.5
348.15 K, x1 = 0.0208 | 984.5
348.15 K, x1 = 0.028 | 986
348.15 K, x1 = 0.035 | 986.8
348.15 K, x1 = 0.0392 | 987
348.15 K, x1 = 0.048 | 987.4
348.15 K, x1 = 0.0564 | 987.6
348.15 K, x1 = 0.068 | 987.5
348.15 K, x1 = 0.0794 | 987.2
348.15 K, x1 = 0.0905 | 986.8
348.15 K, x1 = 0.1023 | 986.3
348.15 K, x1 = 0.1174 | 985.8
348.15 K, x1 = 0.2038 | 983.1
348.15 K, x1 = 0.3024 | 980.8
348.15 K, x1 = 0.3979 | 979.2
348.15 K, x1 = 0.5175 | 977.9
348.15 K, x1 = 0.6063 | 977.1
348.15 K, x1 = 0.9 | 975.8
348.15 K, x1 = 1 | 975.5
